The whole screen tested about 150,000 compounds, of which about 540 (0.36%) showed an effect of 50% or more. This is one part of the list.
These compounds were tested on Plasmodium falciparum (assay: Primary screen in NF54 nanoGlo assay, in single point, at 2uM, 72h; a lower Z score goes with more inhibition). Conditions: timepoint 72 hour.
Type: functional, Erythrocyte
`CN(C)C(=O)c1cccc(Cn2cnc3cnccc3c2=O)c1` was tested, and the “% Inhibition” value was -7% and the Z score was 0.67. With `COCCN1C(=O)[C@@H]2C[C@@H](CN2C)Oc2ccccc21` the “% Inhibition” value was -5% and the Z score was 0.54. For `COc1ccc(C2CN(C(=O)c3ccc(C)cc3)CC2C(=O)NC2CC2)c(OC)c1` (stereo unspecified), the “% Inhibition” value was -11% and the Z score was 1.45. For `Cc1ccc(C)c(S(=O)(=O)Nc2nc(N3CCOCC3)ns2)c1`, the “% Inhibition” value was -8% and the Z score was 0.76. `Cc1cc(CN(C)c2cc([C@H]3CCOC3)nc(NCCO)n2)no1` was tested, and the “% Inhibition” value was -6% and the Z score was 0.82. In the case of `CCc1sc(C(=O)N2CCCc3cc(S(=O)(=O)N4CCCC4)ccc32)cc1C`, the “% Inhibition” value is reported as -7% and the Z score is reported as 1.42. For `CCOc1cc(C(=O)N2CC[C@H](c3cccnc3OC)C2)ccn1`, the “% Inhibition” value was -6% and the Z score was 0.76. With `Cc1nnc(CN(C)Cc2cnc3ccccc3c2)o1` the “% Inhibition” value was 6% and the Z score was -1.2. In the case of `c1ccc(-n2nnnc2C2(NC3CCCCC3)CCCC2)cc1`, the “% Inhibition” value is reported as -4% and the Z score is reported as 0.63. For `CC(C)Oc1ccccc1-c1ncccc1C(=O)N1CCCC1`, the “% Inhibition” value was 9% and the Z score was -1.83. For `CN(C)c1ccc(CNC(=O)c2cc(F)c(Br)cc2Cl)cn1`, the “% Inhibition” value was 6% and the Z score was -0.85. With `O=C1CC(C(=O)N2CCc3ccc(Br)cc32)CC(=O)N1` the “% Inhibition” value was 10% and the Z score was -1.37. For `O=C(c1ccc(N2CCCC2)cc1)N1CCC[C@H](Nc2ccc(F)cc2)C1`, the “% Inhibition” value was -3% and the Z score was 0.28. For `O=C(c1c[nH]nn1)N(CC1CC1)C1CCC1`, the “% Inhibition” value was 4% and the Z score was -0.68. For `C[C@@H](C(=O)Nc1cccc2oc(C(F)(F)F)nc12)c1cccnc1`, the “% Inhibition” value was -1% and the Z score was 0.09. In the case of `CC1CN(S(=O)(=O)c2ccc3c(c2)OCCO3)C(C)CO1` (stereo unspecified), the “% Inhibition” value is reported as -2% and the Z score is reported as 0.27. For `COc1cccc2cc(-c3nnc(NC(=O)CCS(=O)(=O)c4ccc(Cl)cc4)o3)oc12`, the “% Inhibition” value was -13% and the Z score was 1.49. For `COCc1cnc(NC(=O)[C@@H]2CCN(C)[C@@H]2c2ccccc2)s1`, the “% Inhibition” value was -10% and the Z score was 1.01. In the case of `OC(CNC1CCCNc2ccccc21)c1ccc(Cl)s1` (stereo unspecified), the “% Inhibition” value is reported as 57% and the Z score is reported as -4.74. In the case of `CCc1ccccc1NC(=O)CN1CCN(CN2C(=O)NC3(CCCCC3)C2=O)CC1`, the “% Inhibition” value is reported as -36% and the Z score is reported as 4.25. `CC[C@](C)(NC(=O)c1ccccc1)c1nc(-c2ccc(S(N)(=O)=O)cc2)cs1` was tested, and the “% Inhibition” value was -10% and the Z score was 1.68. For `Cn1c(=O)c2nc(N3CCOCC3)[nH]c2n(-c2ccccc2)c1=O`, the “% Inhibition” value was 36% and the Z score was -4.08. For `O=C(C(=O)N1CCCC[C@H]1C(=O)O)c1ccc(Br)cc1`, the “% Inhibition” value was -8% and the Z score was 0.78.

Source: ChEMBL document CHEMBL4888484, “Replenishing the malaria drug discovery pipeline: Screening and hit evaluation of the MMV Hit Generation Library 1 (HGL1) against asexual blood stage Plasmodium falciparum ,using a nano luciferase reporter read-out” (2022)
